Experimental data taken from the supplement of paper PMC12217912.
The list shows a part of the results. The full chains were built here from the parent and the listed change. Values near 0.05 are background.

B1: TEV protease; numbered along this chain (parent)
chain: MGESLFKGPRDYNPISSSICHLTNESDGHTTSLYGIGFGPFIITNKHLFRRNNGTLVVQSLHGVFKVKDTTTLQQHLVDGRDMIIIRMPKDFPPFPQKLKFREPQREERICLVTTNFQTKSMSSMVSDTSCTFPSGDGIFWKHWIQTKDGQCGSPLVSTRDGFIVGIHSASNFTNTNNYFTSVPKNFMELLTNQEAQQWVSGWRLNADSVLWGGHKVFMVKPEEPFQPVKEATQL

Variants of: B1
Assay: raw area under fraction-flipped curve 0-4 h after induction (AUC4h, not background-subtracted), DNA-recorder readout of cleavage of the substrate (dimensionless); higher = more cleavage of the substrate by the protease variant
Conditions: temperature: 34 °C; time window: 0-4 h after rhamnose induction
Protocol: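 In vivo DNA recorder in E. coli TOP10(DE3) ΔrhaA at 34 °C. Each TEVp single-site mutant (parent TEVp 0) is paired with a single-site variant of the 7-mer TEVs (canonical ENLYFQ|S). The substrate sits between flexible linkers in a Bxb1-sfGFP-TEVs-SsrA fusion, so cleavage stabilises Bxb1 and speeds flipping of a recombination array, read by NGS. The value is the raw area under the fraction-flipped curve over 0-4 h after rhamnose induction (AUC4h), with ≥20 reads per time point. It is not background-subtracted; inactive controls average about 0.047.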
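Note: Bxb1 expression induced with 0.2% (w/v) L-rhamnose at OD600 near 0.5, cultures sampled hourly, flipped fraction per protease–substrate barcode pair counted by paired-end Illumina sequencing.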

| Variant | area with substrate ENLYFAS | area with substrate ENLYFCS | area with substrate ENLYFDS | area with substrate ENLYFES | area with substrate ENLYFFS | area with substrate ENLYFGS | area with substrate ENLYFHS | area with substrate ENLYFIS | area with substrate ENLYFKS | area with substrate ENLYFLS | area with substrate ENLYFMS | area with substrate ENLYFNS | area with substrate ENLYFPS | area with substrate ENLYFRS | area with substrate ENLYFSS | area with substrate ENLYFTS | area with substrate ENLYFVS | area with substrate ENLYFWS | area with substrate ENLYFYS |
| --- | --- | --- | --- | --- | --- | --- | --- | --- | --- | --- | --- | --- | --- | --- | --- | --- | --- | --- | --- |
| Y12P | 0.0622 | 0.0664 | 0.0546 | 0.0642 | 0.0658 | 0.0666 | 0.0497 | 0.0519 | 0.0796 | 0.0591 | 0.0623 | 0.0541 | 0.0585 | 0.0666 | 0.0569 | 0.0617 | 0.0565 | 0.0492 | 0.0613 |
| T132S | 0.0591 | – | 0.0807 | 0.048 | 0.0867 | – | – | 0.0531 | 0.0779 | – | 0.0837 | – | – | 0.0419 | 0.0596 | 0.0576 | – | – | – |
| T55E | 0.0681 | 0.0569 | 0.0707 | 0.0633 | 0.0507 | 0.0566 | 0.0551 | 0.0476 | – | – | 0.0722 | – | 0.0549 | 0.052 | – | 0.0371 | 0.0619 | 0.0719 | – |
| M125L | 0.05 | 0.0867 | – | 0.0659 | 0.0396 | – | – | 0.0609 | 0.0535 | – | 0.0673 | 0.0598 | 0.0537 | – | – | 0.0634 | – | 0.0378 | 0.051 |
| F180I | 0.0031 | 0.0397 | – | 0.0541 | 0.0567 | 0.052 | – | 0.0511 | 0.0556 | – | – | – | 0.0472 | – | 0.048 | 0.0509 | 0.0546 | – | 0.0442 |
| P40A | 0.0866 | 0.0599 | 0.0608 | 0.111 | 0.0637 | 0.0565 | 0.0574 | 0.0496 | 0.065 | – | 0.0607 | 0.0618 | 0.0563 | 0.0436 | – | – | 0.0561 | – | – |
| G80H | 0.0668 | – | – | 0.0602 | – | 0.0642 | 0.068 | 0.0472 | 0.0644 | – | 0.0539 | – | – | – | – | – | – | 0.0405 | – |
| G37L | 0.0492 | 0.0686 | – | – | – | – | 0.0386 | 0.0523 | 0.0525 | – | 0.0459 | 0.0399 | 0.0674 | – | 0.0672 | 0.0375 | 0.0486 | 0.0527 | – |
| V229L | 0.0508 | 0.0503 | – | 0.064 | 0.0608 | – | 0.0547 | 0.0568 | 0.0631 | 0.0683 | 0.0658 | 0.0674 | 0.0455 | 0.0543 | 0.1 | 0.0859 | 0.05 | 0.102 | 0.0529 |
| V183C | 0.0945 | 0.0591 | 0.0734 | 0.0626 | 0.064 | 0.0678 | 0.0725 | 0.0542 | – | 0.0551 | 0.0775 | 0.0654 | 0.0591 | 0.0374 | 0.063 | 0.0721 | 0.0613 | – | – |
| S4K | 0.0564 | – | 0.0683 | – | 0.0603 | – | 0.0601 | 0.0519 | – | – | 0.0725 | – | – | 0.0515 | – | 0.0473 | – | 0.0624 | – |
| F226Y | 0.0572 | – | – | 0.062 | 0.0576 | 0.0603 | 0.0584 | 0.0547 | 0.0535 | 0.0523 | – | 0.0624 | 0.0608 | – | – | 0.0771 | 0.0536 | 0.0418 | 0.0597 |
| S4E | 0.0596 | 0.0513 | – | 0.0693 | 0.0873 | 0.0429 | 0.0541 | 0.0614 | 0.0598 | – | 0.0873 | 0.0629 | 0.0538 | 0.0561 | 0.0576 | 0.0642 | – | 0.0559 | 0.0633 |
